The campaign covered roughly 52,000 compounds. About 4,300 (8.3%) were called active. Cut-off read from the data, not from the text of the source: active = survival mostly below about 52% (no sharp cut-off); inactive = mostly above about 56%. Some of the results follow.
The compounds below were run on DeltatarO mutant (assay: growth inhibition of S. aureus wild type versus tarO mutant, primary screen, teichoic acid synthesis inhibitors, RN4220, OD600 (AID 463173)). Conditions: OD600, 18 h, hits give low values, screened at 18.75 µg/mL (by protocol).

Row | SMILES | survival
1 | C=CCn1c2ccccc2c2ccccc21 | inactive: 104%
2 | CN1CC(=O)N(CC(=O)Nc2ccc(OC(F)(F)F)cc2)c2ccccc2C1=O | inactive: 92%
3 | CCc1ccc(NC(=O)Cn2c(=O)c3cc(Cl)ccc3n3nncc23)cc1 | inactive: 80%
4 | Cc1ccccc1CNC(=O)C(=O)NCC(c1cccs1)S(=O)(=O)c1cccs1 (stereo not given) | inactive: 115%
5 | C=Cc1ccc(Cn2c(SCC(=O)N3CCN(c4ccc(F)cc4)CC3)nc3ccccc32)cc1 | inactive: 83%
6 | O=c1c2oc3ccccc3c2n(Cc2cccc(F)c2)c(=O)n1Cc1ccc2c(c1)OCO2 | inactive: 86%
7 | O=C(NCc1ccc(F)cc1)c1ccc2oc(=O)n(Cc3ccccc3)c2c1 | active: -2%
8 | COc1cccc(CNC(=O)Cn2c(=O)oc3cc(S(=O)(=O)N4CCCCCC4)ccc32)c1 | inactive: 124%
9 | COc1ccccc1NC(=O)C(=O)NCC(c1cccnc1)N1CCc2ccccc2C1 (stereo not given) | inactive: 79%
10 | NC(=O)CSc1nnc(C2CC2)n1Cc1ccccc1 | inactive: 87%
11 | COC(=O)c1ccc(NC(=O)CCc2c(C)nn(-c3ccc(N4CCCCC4)nn3)c2C)cc1 | inactive: 71%
12 | CSc1ccc(CCNC(=O)c2c(C)oc3ncn(C)c(=O)c23)cc1 | active: -2%
13 | COc1ccc(N2CCN(C(=O)C3CCN(c4nc5ccc(C)cc5[nH]4)CC3)CC2)cc1 | inactive: 89%
14 | COc1ccc(CCN2CCC(CNC(=O)c3cnn(-c4cccc(Cl)c4)c3C3CCN(C(=O)OC(C)(C)C)CC3)CC2)cc1 | inactive: 93%
15 | Cc1cccc(Cn2c(Cc3ccccc3)nc3ccccc32)c1 | active: 22%
16 | O=C(CN1c2ccccc2S(=O)(=O)c2ccccc21)Nc1cccc(C(F)(F)F)c1 | inactive: 69%
17 | O=S(=O)(NC1CCCC1)c1ccc(Br)cc1 | inactive: 93%
18 | Cc1ccc(S(=O)(=O)c2cn(CC(=O)Nc3ccc(Cl)cc3)c3ccc(F)cc3c2=O)cc1C | inactive: 53%
19 | S=c1nc[nH]c2c1oc1ccccc12 | inactive: 73%
20 | Cc1cccc(NC(=O)/C(C#N)=C/c2ccc(C)o2)c1 | inactive: 64%
21 | CCOC(=O)c1ccc(NC(=O)CCc2nc3cccnc3n2Cc2cccs2)cc1 | inactive: 58%
22 | COc1cc(C2CC(=O)Nc3c2c(=O)n(C)c2ncnn32)cc(OC)c1OC (stereo not given) | inactive: 164%
23 | CCOC(=O)c1c(NC(=O)c2cc(CC)on2)sc(C(C)=O)c1C | inactive: 52%

Row | SMILES | survival
24 | Cc1ccc(C)c(C(C)c2ccc(C)nc2)c1 (stereo not given) | inactive: 105%
25 | CC(=O)c1ccc(N2CCN(c3ccc4cc(S(=O)(=O)N5CCC(C)CC5)ccc4n3)CC2)cc1 | inactive: 89%
26 | Cc1cc(NC(=O)c2ccc(NC(=O)CCS(=O)(=O)c3cccs3)cc2)ccc1Br | active: 35%
27 | Cc1cc2c(cc3c(SCc4ccccc4Cl)nnc(C)n32)o1 | active: 49%
28 | COc1cccc(NS(=O)(=O)c2ccc3[nH]cc(C(=O)N4CCCC4)c(=O)c3c2)c1 | inactive: 94%
29 | Cc1c(CCNC(=O)C(C)(C)C)sc2nc(-c3ccc(F)cc3)nn12 | inactive: 84%
30 | CC(=O)c1ccc(NC(=O)COCc2cc(-c3ccc(F)cc3)on2)cc1 | inactive: 102%
31 | CCn1c(COc2cccc(C)c2)nnc1SCC(=O)N1C(C)CCCC1C (stereo not given) | inactive: 86%
32 | COc1ccccc1NC(=O)C1=C(C)Nc2nc(SCc3ccccc3)nn2C1c1ccncc1 (stereo not given) | inactive: 60%
33 | O=C(Nc1ccc(C(F)(F)F)cc1)C(Cc1ccccc1)n1cccc1 (stereo not given) | active: -4%
34 | O=C(NCCCN1CCN(c2ccccc2F)CC1)c1ccc2nc(N3CCCCC3)sc2c1 | inactive: 93%
35 | CC(=O)Nc1cccc(C(=O)NCc2ccc3c(c2)CCN3C(=O)c2ccc(F)cc2)c1 | inactive: 88%
36 | CC(C)N(Cc1ccccc1)C(=O)CN1C(=O)CSc2ccc(S(=O)(=O)N3CCCC3)cc21 | inactive: 92%
37 | Cc1ccc(N(C(=O)Cn2nnc(-c3ccc(C)o3)n2)C(C(=O)NCC2CCCO2)c2ccc(F)cc2)cc1 (stereo not given) | inactive: 95%
38 | CN(C)S(=O)(=O)N(CC(=O)NCCSc1ccccc1)c1ccccc1 | inactive: 87%
39 | CCn1cc(C(=O)N2CCN(c3ccc(OC)cc3)CC2)c(=O)c2cc(S(=O)(=O)N3CCOCC3)ccc21 | inactive: 135%
40 | COc1ccc(OCC(=O)Nc2ccc(-c3nc4cc(C)c(C)cc4o3)cc2)cc1 | inactive: 68%
41 | COc1ccc2[nH]cc(CCN=C(NC(=O)c3ccccc3C)Nc3nc(C)cc(C)n3)c2c1 | inactive: 78%
42 | COc1cc(OC)c(N(C)C(=O)c2sc3nc4n(c(=O)c3c2C)CCCCC4)cc1Cl | inactive: 55%
43 | Cc1cc(Nc2cc(F)ccc2C)nc(-n2nc(C)cc2C)n1 | inactive: 89%
44 | COc1cc(NC(=O)Cn2nc3c(cc2=O)CC(C)CC3)cc(OC)c1OC (stereo not given) | inactive: 64%
45 | CCc1ccc(NC(=O)C(=O)NCCc2sc3nc(-c4ccc(OC)cc4)nn3c2C)cc1 | inactive: 91%
46 | Cc1ccc(CNc2nc3ccc(C)cc3n3nnnc23)cc1 | inactive: 87%

Row | SMILES | survival
47 | Cc1ccc(CCNC(=O)c2c(C)nn(-c3ccc(F)cc3)c2-n2cccc2)cc1 | inactive: 67%
48 | Cc1ccc(NS(=O)(=O)c2ccc(-c3cc(C)no3)cc2)c(Br)c1 | inactive: 75%
49 | CCOc1ccccc1NC(=O)N1CCC2(CC1)Oc1ccccc1C(=O)N2Cc1ccccc1F | inactive: 84%
50 | CN(C)C(=O)NC1C=CS(=O)(=O)C1 (stereo not given) | inactive: 76%
51 | CC(=O)Nc1nc(N(C)C)nc(N(C)C)n1 | inactive: 89%
52 | CC1=C(C(=O)Nc2ccccc2)C(c2ccc(O)cc2)n2nc(SCc3ccccc3)nc2N1 (stereo not given) | inactive: 84%
53 | O=C(Cn1ncc2c3ccccc3n(Cc3ccc(F)cc3)c2c1=O)NCCCN1CCCCC1 | inactive: 91%
54 | N#Cc1c[nH]n2c(NC3CCCC3)c(-c3ccc(Cl)cc3)nc12 | inactive: 61%
55 | CC1CCN(C(=O)CN2C(=O)C(C)(C)Oc3ccc(C(=O)NC(C)C)cc32)CC1 | inactive: 97%
56 | COc1ccc(N2CCN(Cc3nnnn3C3CCCCC3)CC2)cc1 | inactive: 91%
57 | COc1ccc(NC(=O)Nc2nnc(N(CC(C)C)CC(C)C)s2)c(OC)c1 | inactive: 75%
58 | CCN(C(=O)c1cc2c(s1)-c1ccccc1OC2)c1cccc(C(F)(F)F)c1 | active: -1%
59 | COc1ccc(NC(=O)c2cc(C3CC3)nc3c2c(C)nn3-c2ccccc2)cc1OC | inactive: 57%
60 | Cc1ccc(NC(=O)c2c(NC(=O)C(F)(F)F)sc3c2CCCCC3)cc1 | active: -5%
61 | O=C(Cn1c(-c2cccs2)cc2ccccc21)NCCCN1CCN(c2ccccc2F)CC1 | inactive: 69%
62 | O=C(CSc1nccn1Cc1ccccc1)Nc1ccc2c(c1)OCCO2 | inactive: 71%
63 | O=C(CSc1nnc(COc2ccccc2)o1)Nc1cc(C(F)(F)F)ccc1Cl | inactive: 58%
64 | Cc1ccc(CNC(=O)Cn2cccc2C(=O)c2ccccc2C)cc1 | inactive: 80%
65 | COc1ccc(Cl)cc1NC(=O)CCn1c(=O)oc2ccccc21 | active: 40%
66 | O=c1[nH]c(SCc2ccc([N+](=O)[O-])cc2)nc2c1CCCC2 | inactive: 65%
67 | Cc1ccccc1NC(=O)CSc1ccc(-c2cccs2)nn1 | inactive: 98%
68 | Cc1ccc(N(CC(=O)Nc2ccc(C)c(Cl)c2)S(=O)(=O)c2cccs2)cc1 | inactive: 81%
69 | COc1cccc(NC(=O)Cn2c(=O)n(-c3ccccc3)c(=O)c3c2c2cc(OC)ccc2n3C)c1 | inactive: 86%

Row | SMILES | survival
70 | O=S(=O)(c1ccc(-c2cnc(C3CC3)o2)cc1)N1CCN(c2ccccc2)CC1 | inactive: 66%
71 | CC1=C(C(=O)OC2CCCC2)C(c2ccccc2C(F)(F)F)CC(=O)N1 (stereo not given) | inactive: 84%
72 | COc1ccc(/C=C(\NC(=O)c2ccccc2)C(=O)N2CCOCC2)cc1 | inactive: 99%
73 | Cc1cccc(CSc2ncccc2C(=O)O)c1 | active: 47%
74 | COc1ccc(-n2c(=O)c3ccc(C(=O)NCc4ccc(C)cc4)cc3n(Cc3ccc(Cl)cc3)c2=O)cc1 | inactive: 69%
75 | CCOC(=O)c1cc2occc2n1CC(=O)N1CCCCC1 | inactive: 98%
76 | COCCn1c(C)cc(O)c(C(c2ccc(F)cc2)N2CCC(C)CC2)c1=O (stereo not given) | inactive: 87%
77 | COc1ccc(-n2nc3c(N4CCCC(C(=O)NCCc5ccccc5C)C4)nnc(C)c3c2C)cc1 (stereo not given) | inactive: 70%
78 | CC1=NN(c2ccc(Cl)cc2)C(=O)C1 | inactive: 68%
79 | O=C(c1ccc2c(c1)N(Cc1ccc(Cl)cc1)C(=O)c1ccccc1S2(=O)=O)N1CCN(c2ccccn2)CC1 | inactive: 80%
80 | Cc1cccc(CSc2nnc3[nH]c(=O)cc(-c4ccccc4)n23)c1 | inactive: 67%
81 | COc1cc(-c2nc3ccc(Cl)cn3c2Nc2ccc3c(c2)OCCO3)ccc1O | inactive: 58%
82 | CCOc1ccc(NC(=O)N2CCC(N3CCCCC3)CC2)cc1 | inactive: 114%
83 | Cc1cc(NC(=O)C2CCCN(S(=O)(=O)c3cccc4nsnc34)C2)ccc1Br (stereo not given) | inactive: 80%
84 | Cc1cccc(N2CCN(C(=O)Nc3ccccc3F)CC2=O)c1C | inactive: 92%
85 | O=C(Nc1cc(Cl)cc(Cl)c1)c1ccc(F)c(S(=O)(=O)N2CCN(c3ccccc3F)CC2)c1 | inactive: 84%
86 | N#Cc1ccc(-c2ccc(OCC3CNC(=O)O3)cc2)cc1 (stereo not given) | inactive: 63%
87 | Cc1ccc(NC(=O)COc2ccc3oc4c(c3c2)CCCC4)cc1C | inactive: 70%
88 | Cc1ccc(CN2COc3c(Cl)cc4c(-c5ccccc5)cc(=O)oc4c3C2)cc1 | inactive: 61%
89 | CCc1cccc(NC(=O)c2ccc3c(c2)c(C)c(C)n3Cc2ccc(F)cc2)c1 | inactive: 99%
90 | CCOc1ccccc1NC(=O)c1c(NC(=O)Cc2ccc(OC)cc2)sc2c1CCC2 | inactive: 61%

From PubChem BioAssay AID463173 (ICCB-Longwood Screening Facility, Harvard Medical School, 2010)
